We go through 73 sequences from article PMC10726135.

Some of the results follow. At the low end of the ranking the order means little. Measured with an extract: partners may take part in the binding.

The assay addresses T1, HNF4alpha8 (COS-7 nuclear extract) (UniProt P41235-5).
T1 sequence: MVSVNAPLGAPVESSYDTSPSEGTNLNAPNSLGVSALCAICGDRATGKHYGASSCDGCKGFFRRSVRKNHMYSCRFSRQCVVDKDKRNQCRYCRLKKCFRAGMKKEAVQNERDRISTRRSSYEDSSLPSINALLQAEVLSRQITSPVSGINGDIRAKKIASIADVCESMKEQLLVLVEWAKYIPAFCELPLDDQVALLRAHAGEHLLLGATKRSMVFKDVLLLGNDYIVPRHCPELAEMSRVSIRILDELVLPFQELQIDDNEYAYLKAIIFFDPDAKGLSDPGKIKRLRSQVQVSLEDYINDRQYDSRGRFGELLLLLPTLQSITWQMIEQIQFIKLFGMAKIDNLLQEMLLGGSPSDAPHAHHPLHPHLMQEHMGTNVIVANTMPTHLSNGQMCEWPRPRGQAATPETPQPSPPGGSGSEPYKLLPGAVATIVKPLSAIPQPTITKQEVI
As to the kind of experiment: protein-binding microarray. To be noted: COS-7 nuclear extract on double-stranded Agilent 4x180k PBM; binding buffer, salt, pH and temperature not given; high values mean tight binding; double strand, one strand shown; sequences stand for … in …GCCTAGGGAGATTAGAGTATCGGTCGA
Consider ATGATTATGCCTCTGTGACCTATAATCAGA, for which the binding signal (log2 normalized intensity) amounted to 3.21.

Regarding TCTAGCATCCCTCTCTTGCTGGGCCCCCAG, the binding signal (log2 normalized intensity) was determined as 2.16.

For ATTGCCTTTCTCTGTGTGTATGTGTGTGTA, the binding signal (log2 normalized intensity) turned out to be 3.02.

CTGCCACTTATTGTGTTATGTACTTAGTGT: the binding signal (log2 normalized intensity) is 2.25.

Turning to GACCTCACATTGTAGCTAAAATGTTAATGA, the binding signal (log2 normalized intensity) was found to be 0.8.

In the case of GAAATGTAGTTCCGGAGAACACGGAGTCCT, the binding signal (log2 normalized intensity) was -0.943.

For CTGTGACACCCTGGTTGACACTCGAGGATC, the binding signal (log2 normalized intensity) is -0.244.

Consider CTTGGATTTTCTCATCCCAGGGATAATGAT, for which the binding signal (log2 normalized intensity) is -0.852.

With TTCCATGTCCAAAGGTCTTCATGAGCAATA, the binding signal (log2 normalized intensity) turned out to be 3.52.

As for TTAGCCTTTGAACCCCACACCTCCCTTGCA, the binding signal (log2 normalized intensity) is 4.29.

For the sequence CGGTTCCCAATAAGTTCCTCATTTTCATGT, the binding signal (log2 normalized intensity) was 1.15.

With GCACAGCTTATCACTGGTGATGTGAACCTC, the binding signal (log2 normalized intensity) worked out at 2.8.

For the sequence AACCACCAGATAGAGCTTTTGAGGGTGACC, the binding signal (log2 normalized intensity) turned out to be 2.06.

Regarding TCAAAGCCCAACCAGGATAGGGAGGGGTAA, the binding signal (log2 normalized intensity) is -1.32.

With GCCTGAGCTATCTGTTTGAGGTTCACTGGG, the binding signal (log2 normalized intensity) was found to be 1.81.

In the case of TCAAAGGGCATTACTTGCTGGAGAAAGAGG, the binding signal (log2 normalized intensity) is -1.1.

Consider ATCCCGTGGACTTTGCCTGCCCATCCCGTG, for which the binding signal (log2 normalized intensity) came out at 4.23.

With TATCTCTGTGGATAGCTCAGGGATTAACGA, the binding signal (log2 normalized intensity) was -1.02.

Take TGCTGCAATTTAAGCTTACTTCCTCTCCTA: the binding signal (log2 normalized intensity) is -1.33.

In the case of GCACTGATAAGCGTATTTCAACCTTTGATC, the binding signal (log2 normalized intensity) is 8.45.

With ATGATAAGTTGGAATTTGGGTGATCCTGGT, the binding signal (log2 normalized intensity) amounted to 1.44.

Turning to CTTTGGCCTTTTGTGAGATATGGACTGTAG, the binding signal (log2 normalized intensity) was found to be 3.11.

With TACAGAGCTGAAGTTTGCAAACAGTAAAGA, the binding signal (log2 normalized intensity) was -0.901.

For TGTCTCTTCTTGTACCTCTGGTGATTACCA, the binding signal (log2 normalized intensity) came out at 0.864.

In the case of TGGAAGGCTGTATGTACACTTGCCCTCTCA, the binding signal (log2 normalized intensity) was determined as 3.73.

With TTTGAAGTCTGGTGGCAAGTACCCTTTATC, the binding signal (log2 normalized intensity) stood at 1.93.

GGGCTGGTTGGCACGCTTAGGGAACAAAGG: the binding signal (log2 normalized intensity) turned out to be 1.87.

ATACACACACACCCCTCCACTGGACAGCAG: the binding signal (log2 normalized intensity) came out at 2.5.

Turning to ATGAAGCTAAAAGAAGTCCAAGGACTTATC, the binding signal (log2 normalized intensity) was -1.26.

Take GGAAATACCGACAACGCCAAGGACCGCCAA: the binding signal (log2 normalized intensity) is -1.24.

As for AGCCTTATCTTCCAGCCCTGTCTCTCAGGT, the binding signal (log2 normalized intensity) is -0.0104.

For TCCTCCTATGTCAATAGAGCATGAGAACTT, the binding signal (log2 normalized intensity) came out at 0.343.

For GGTCACACAGCTAAGAGCCGCAGAGCTAAT, the binding signal (log2 normalized intensity) was -1.

For GGTCATCTGAGGGAAAAGATAAGATTATCT, the binding signal (log2 normalized intensity) was -1.25.

Turning to CTAAGCGATAAGGAGGAAGGACACTTAGAG, the binding signal (log2 normalized intensity) was -1.34.

Consider CCGCGCCCCGCCCCCAGTGCACCTTAATAA, for which the binding signal (log2 normalized intensity) came to 5.45.

Regarding AAACACATGCAATCACACTAATCTGTCAGA, the binding signal (log2 normalized intensity) is -0.959.

For TTTCTTCTCTGTAGGTAAACAGTGACTCAT, the binding signal (log2 normalized intensity) was determined as 1.73.

Turning to GTTCTTATTTGCTGAGGAAGACTTCATTCA, the binding signal (log2 normalized intensity) is -1.28.

For the sequence GATAAGAAGACTCCAGGGGACTGCCTCTTC, the binding signal (log2 normalized intensity) was -1.35.

Regarding TCACTCAGCAATAAATACCAAAGCCATGGC, the binding signal (log2 normalized intensity) was -1.09.

Regarding ATAGCCCAAGTTCAAAGGTTATCTGCTGGC, the binding signal (log2 normalized intensity) was determined as 4.87.

Take TTCACTGTTTGCTTTTCTTATTTACCGAAA: the binding signal (log2 normalized intensity) amounted to 0.799.

AATTTGAACCAAGATCTGTGAAAGAAAAGT: the binding signal (log2 normalized intensity) is -0.147.

As for GCACCCGGGCAGCCTGTGGCCAGGCTGCGT, the binding signal (log2 normalized intensity) was -1.29.

Turning to TCTGATTTCCCCGTCCCAAGCTGAGGTCTG, the binding signal (log2 normalized intensity) came to 2.74.

CTGTTAACTTCTTATGCATAGATGTTTAGC: the binding signal (log2 normalized intensity) worked out at 0.508.

As for TTGGGGCCCACAGAGTCCAGAGGTCACTTT, the binding signal (log2 normalized intensity) was 6.63.

For AAGACCGGTATTTGAGATATTTTTCAGACC, the binding signal (log2 normalized intensity) is 0.389.

As to ACTCTTATCAGACAGGATATTTTGAGGGCT, the binding signal (log2 normalized intensity) is -1.23.

In the case of CAAGGGCTTACAACTCTAAGGGGGAAAGTC, the binding signal (log2 normalized intensity) was -1.29.

In the case of CACCTGCCCTCAGGGAGCTCCAGCACTGGG, the binding signal (log2 normalized intensity) was -1.18.

On to ATATTCACTATCTGATCCTTTACAGAGATA, for which the binding signal (log2 normalized intensity) came out at 0.68.

Regarding CGTCGCTGAGTGGAGGCCCAGTAAGTCCCA, the binding signal (log2 normalized intensity) is -1.43.

On to TTATCTGGGCCAGGTATTTGGACTTTTTGT, for which the binding signal (log2 normalized intensity) was determined as 4.57.

For the sequence GATCTGGGTGTGCCATTCTTCCAGTTGTGT, the binding signal (log2 normalized intensity) was 1.69.

For the sequence GTTGAGGAGTTTGTACTTTATCCTACAAGG, the binding signal (log2 normalized intensity) amounted to 3.09.

As to TACTGGGGATGGACTTTGGCCCTCAGCCCA, the binding signal (log2 normalized intensity) was 9.48.

Take CCTTATCAGAAGGAAAGTCTCCCTCCCTTT: the binding signal (log2 normalized intensity) was found to be 1.72.

On to GATCATCTTCACCTGCCCTGAGTCCAGCCT, for which the binding signal (log2 normalized intensity) is 1.83.

Regarding AAAATATGGACTTTGGAATTAAGAAAAGCT, the binding signal (log2 normalized intensity) was 5.77.

TGGATCTTGAAGCAGAAAACCACTGTGCTC: the binding signal (log2 normalized intensity) was -0.751.

Take AGGAGGGACTGAACAGATATTGGCCAAAGG: the binding signal (log2 normalized intensity) worked out at 1.11.

As to GACCTTGGAATGTCAAGATTGAGACATTCA, the binding signal (log2 normalized intensity) is -0.127.

GAAAAGGCCTGACCTTTGCCCTCTGGCCCT: the binding signal (log2 normalized intensity) was 9.29.

As to TCCCCCTGCCCTTCGTCCTGAGCAGTCCCT, the binding signal (log2 normalized intensity) is 2.79.

With CTAGGGGGCACCTCTGAAAGCACTTGTAGG, the binding signal (log2 normalized intensity) was -1.26.

In the case of GCCTTCCCCGCCCGCAGCCCAGTCTTGGCC, the binding signal (log2 normalized intensity) was determined as 3.6.

As for TAAAAATTAGCTGAACATGGTGACACACAC, the binding signal (log2 normalized intensity) is -0.563.

Consider GGAATTCTTCACCAAATCATTTCACTTCCT, for which the binding signal (log2 normalized intensity) was -1.17.

As to GACCTTTGACCTTTATACCTGTACGTTACT, the binding signal (log2 normalized intensity) is 7.64.

Consider CCACCCTGGCAGAGGAAAAAGTCCCTGGTC, for which the binding signal (log2 normalized intensity) is -0.806.

On to AGTCTGGAAGTTGAATTCCTTCTTCTTCTG, for which the binding signal (log2 normalized intensity) was found to be 0.0887.
